Reference: the supplement of paper PMC8674133
Recombinant human monoclonal antibodies (heavy:light variable regions). ELISA EC50 on the named antigen, from 10 µg/ml down; IC50 / IC90 against spike pseudovirus on 293T-ACE2 cells, 48 h; lower = stronger. Calls: IC50 above 1,000 ng/ml = non-neutralizing; EC50 above 2,000 ng/ml = non-binder. The source prints 1000 for neutralization that was not reached; it is given as >1000 ng/ml. A few antibodies were first reported in earlier work of the same group.

B1: C1199 (protein)
chain 1: QVQLVQSGAEVKKSGASVKVSCKASGYTFTSYGISWVRQAPGQGLEWMGWISTYNGDTTSAQKVQGRVTMTTDTSTNTVYMEVRSLRSDDTAVYYCARVATAYSSGWSMYFFDFWGQGTLVTVSS
chain 2: EIVMTQSPASLSVSPGERATLSCRASQSVSTNLAWYQQKPGQAPRLLIYGASTRATGIPARFSGSGSGTEFTLTISSLQSEDFAVYYCQLYDDWPPVFTFGPGTKVDIK
B2: C1197 (protein)
chain 1: EVQLVQSGAEVKKPGESLRISCKGSGYSFTSYWITWVRQMPGKGLEWMGRIDPSDSYTNYSPSFQGHVTFSADKSITTAYLQWSSLKASDTAMYYCARPEYCSTTTCSDDAFDIWGQGTMVTVSS
chain 2: DIQMTQSPSSLSASVGDRVTITCRASQSIGTYLNWYQQKPGKAPKLLIYTASSLQSGVPSRFSGSGSGTDFTLTISSLQPEDFATYYCQQSYSTVTFGPGTKVDIK
B3: C1202 (protein)
chain 1: QVQLVQSGAEVRKPGSSVKVSCKASGGTFSSYAISWVRQAPGQGLEWMGGIIPIFRTANYAQRFQGRVTITADESTRTAYMELSSLRSEDTAVYYCARDLGEGILHDYGGPYYYYAMDVWGQGTTVTVSS
chain 2: EIVMTQSPATLSVSPGERATLSCRASQSVSSNLAWYQQKLGQAPRLLIYGASTRATGIPARFSGSGSETEFTLTISSLQSEDFAVYYCQQYNNWPAWTFGQGTKVEIK
B4: C1187 (protein)
chain 1: QVQLQQWGAGLRKPSETLSLTCAVYGGSFSAYYWNWIRQSPGKGLEWIGETHHTGSTKYNPSLKSRVTISVDTSKNQFSLKLSSVTAADTAVYYCARATYYYDSSSYGINWFAPWGPGTLVTVSS
chain 2: QSVLTQPPSVSGAPGQRVTISCTGSRSNIGAGYDVHWYQHLPGTAPKLLIYVNNNRPSGVPDRISGSKSGTSASLAITGLQAEDEADYYCQSYDNDVSGYVFGGGTKVTVL
B5: C1189 (protein)
chain 1: QVQLQESGPGLVKPSGTLSLTCTISGGSISSSNWWSWVRQSPEKGLEWIGEVFHSGSTYYNPSLKSRVTISIDKSKNQFSLQLTSMTAADTAVYYCARSSGLLDYWGQGTLVTVSS
chain 2: DIQMTQSPSSLSASVGDRVTITCRASQGIGNSLAWYQQKPGKAPKFLLYAASTLESGVPSRFSGSGSGTDFTLTISSLQPEDFATYYCQQYYSTRTFGQGTKVEIK
B6: C1201 (protein)
chain 1: QVQLQESGPGLVKPSQTLSLTCTVSGGSISRGVYYWNWIRQHPGKGLEWIGYIYSSGSTYYNPSLESRLTILLDTSKNQFSLRLNSVTAADTAVYYCASGRVPYYFDSWGQGALVTVSS
chain 2: QSVLTQPPSVSGAPGQRVTISCTGSASNIGAGFDVHWYQQLPGAAPRLLIYGNNNRPSGVPDRFSGSKSGTSASLAITGLQAEDEADYYCQSYDSKLSGPYVFGTGTKVAVL
B7: C1198 (protein)
chain 1: QVQLVQSGAEVKKPGSSVRVSCKASGGTFSSYAISWVRQAPGQGLEWMGGIIPMLGTGRYAQKFQGRVTITADESTRTTYMDLSSLRSEDAAVYYCARDRGPPPGGRYGFYYGMDVWGPGTTVTVSS
chain 2: QSALTQPASVSGSPGQSITISCTGTSSDVGGYNYVSWYQQHPGTAPKLVISDVSDRPSGVSNRFSGSKSGNTASLTISGLQAEDEADYYCSSYRSSSTLVVFGGGTKLTVL
B8: C2436 (protein)
chain 1: QVQLQESGPGLVKPSQTLSLTCTVSGGSVSRNGDYWSWVRQHPGKGLEWIGNIYYSGSTFFNPSLKSRVIMSIDTSKNQFSLKLSSVTAADTAVYYCARDTLWGAFDIWGQGTMVTVSS
chain 2: IRMTQSPSSLSASVGDRVTITCQASQDIRKSLNWYQQKLGKAPKLLIYDVSNLETGVPSRFSGSGSGTDFIFTINSPQPEDMATYFCQQYENPPRTFGQGTKVEIK
B9: C1203 (protein)
chain 1: QVQLQESGPGLLKPSETLSLMCTVSGGSIGSYYWSWIRQPPGKGLEWIGYVYESGGTNYNPSLRSRVTISVDTSKNQFSLKLRSVTAADTAVYYCARERSAVTTWGSAAFHIWGHGTMVTVSS
chain 2: DIQMTQSPSSLSASVGDRVTITCQATQDISNYLNWYQQKPGKAPKLLIYDASNLETGVPSRFSGSGSGTDFTFTISSLQPEDIATYYCQQYDNLPITFGQGTRLEIK
B10: C1276 (protein)
chain 1: QVQLVQSGAEVEKPGASVKVSCKASGYSFSNYYIHWVRQAPGQGLEWMGIINPSAGSTTYAQKFQGRVTLTTDTSTNTVYMELSSLRSEDTAVYYCARDWGGIPAATYFDPWGQGTLVTVSS
chain 2: EIVLTQSPATLSFSPGERATLSCRASQSVGSYLAWYQQRPGQAPRLLIYDASNRATAIPARFSGSGSGTDFTLTISSLEPEDFAVYYCQQRSNGYTFGQGTKLEIK
B11: C1277 (protein)
chain 1: QLQLQESGPGLVKPSETLSLTCNVSGGSISSSSYYWGWIRQPPGKGLEWIGSFSYSDSPYYNPSLKSRVTISVDTSKNRFSLRLSSVTAADTAVYACARHRTSGTWAPFDAFDIWGQGTMVTVSS
chain 2: EIVMTQSPGTLSVSPGERATLSCRASQSVSSDLAWYQQKPGQTPRLLIYGASTRATGIPARFSGSGSGTEFTLTISSLQSEDFAVYYCQQYKYWGTFGQGTKLEIK
B12: C1195 (protein)
chain 1: QLQLQESGPGLVKPSETLSLTCTVSGGSISSINYYWGWIRQPPGKGLEWIGSVYYSGSTYYKSSLKSRVTISVDTSKNHFSLKLISVTASDTAVYYCARLPLGYCSGGTCFPKSLWGQGTLVTVSS
chain 2: DIQMTQSPSSLSASVGDRVTITCQASQDISNYLSWYQQKPGKAPKLLIYDASNLETGVPSRFSGSGSGTDFTFTISSLQPEDIATYYCQQYDDLPALSFGGGTKVEIK
B13: C1196 (protein)
chain 1: QLQLQESGPGLVRPSETLSLTCTVSGGSISSSGYYWDWVRQPPGKGLEWIGSIYYSGSTYSNPSLKSRVTISVDTSQNQFSLNLSSVTATDTAVYYCARGLGAFDYWGQGTLVTVSS
chain 2: DIQMTQSPSSLSASVGDRVTITCRASQGISNSLAWYQQRPGRAPRLLVYAASTLESGVPSRFSGSGSGTDFTLTISSLHPEDFATYYCQQYYSAPPRTFGQGTKVEIK
B14: C1308 (protein)
chain 1: EVQLVESGGGLVQPGGSLRLSCAASGFTFSSYWMSWVRQAPGKGLEWVAYIKQDGGEKYYVDSVKGRFTISRDNTKNSLYLQMNSLRVEDTAVYYCARGRTGPYLGIDYWGQGTLVTVSS
chain 2: NFMLTQPHSVSESPGKTVTISCTCSSGSIASNYVQWYQQRPGSSPTTVIYEDNQRPSGVPDRFSGSIDSSSNSASLTISGLKTEDEADYYCQSYDSSNWVFGGGTKLTVL
B15: C1188 (protein)
chain 1: QVQLVQSGAEVKKPGSSVKVSCRASGGTFSSYAITWVRQAPGQGLEWMGRIIPRFGTASNAQKFQGRVTITADESTSTASMELSSLRSEDTAVYYCATGVVHIVVVPTYHSYYGLDVWGQGTTVTVSS
chain 2: QSALTQPRSVSGSPGQSVTISCTGTSSDVGGYDYVSWYQQHPGKAPKLMIYDVSKRPSGVPDRFSGSKSGDTASLTISGLQAEDEAEYFCCSYAGSYTHVFGTGTEVTVL
B16: C1200 (protein)
chain 1: QVQLQESGPGLVKPSETLSLTCTVSGASISSYYCSWIRQAPGKGLEWIGNIYYSGSTNYNPSLKSRVTISLDTSQNQFSLKLSSVTAADTAIYYCARSFSGDEIDFWGQGTLVTVSS
chain 2: DIQMTQSPSTLSASVGDRITITCRASQSISRWLAWYQQKPGKAPKLLIYRASSLESGVPSRFSGSGSGTEFTLTISSLQPDDFATYYCQQYNSYRTFGQGTKVEIK

How the values were obtained:
[1] = target: SARS-CoV-2 Wuhan-Hu-1 spike pseudovirus; assay: pseudovirus neutralization IC50; higher = weaker neutralization
Experimental: (§1)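 Single-round luciferase reporter pseudovirus mixed with antibody dilutions and put on 293T-ACE2 cells for 48 h; signal relative to no-antibody wells, four-parameter fit.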

[2] = target: SARS-CoV-2 Wuhan-Hu-1 spike pseudovirus; assay: pseudovirus neutralization IC90; higher = weaker neutralization
Experimental: as §1

[3] = target: SARS-CoV-2 Wuhan-Hu-1 spike receptor-binding domain; assay: ELISA binding EC50; higher = weaker binding; ELISA of recombinant human antibody on coated antigen, from 10 µg/ml in fourfold dilutions; four-parameter fit.

Binder	pseudovirus neutralization IC50 [1] [µg/mL]	pseudovirus neutralization IC90 [2] [µg/mL]	ELISA binding EC50 [3] [µg/mL]
B1	0.391	> 1	0.00306
B2	0.0553	> 1	0.00277
B3	0.00692	0.0719	0.00219
B4	0.522	> 1	0.00284
B5	0.0153	0.0555	0.00231
B6	0.126	> 1	0.00241
B7	> 1	> 1	0.0155
B8	> 1	> 1	0.00586
B9	0.033	0.105	0.00252
B10	> 1	> 1	0.00509
B11	0.199	> 1	0.00243
B12	0.0258	0.343	0.0035
B13	0.00558	0.0516	0.002
B14	0.139	> 1	0.00335
B15	> 1	> 1	0.00381
B16	0.0761	> 1	0.0031
